Hit rate of the full screen: of about 150,000 compounds, about 540 (0.36%) showed an effect of 50% or more. The list shows a part of the results.

The assay deals with Plasmodium falciparum. Description: Primary screen in NF54 nanoGlo assay, in single point, at 2uM, 72h; a lower Z score goes with more inhibition. The assay is classed as functional, Erythrocyte. Particulars: timepoint 72 hour.
Consider `Clc1snnc1CN1CC[C@H](OCCCc2ccccc2)C1`, for which the “% Inhibition” value was -6% and the Z score was determined as 0.62.
For `COc1nc(C)c(-c2ccc(S(C)(=O)=O)cc2)c(C)c1C#N`, in that order: 6% and -0.87.
Taken in the same sequence, the figures for `CCOC(=O)Cc1cccc(NC(=O)[C@@H]2CCCCN2C(C)=O)c1` were -3% and 0.64.
For `O=C(c1cccc(F)c1)N1CCN(c2cc(N3CCCC3)ncn2)CC1`, in that order: -25% and 2.24.
Turning to `C#CCN(CC#CC)S(=O)(=O)c1cccs1`, the “% Inhibition” value is listed as -8% and the Z score is listed as 1.1.
Taken in the same sequence, the figures for `O=C1NC2(CCCC2)C(=O)N1CN1CCc2ccccc2C1` were 19% and -2.17.
With `NC(=O)N1CCC(N[C@H]2CCc3c(Cl)cc(Cl)cc32)CC1`, the “% Inhibition” value is given as -13% and the Z score turned out to be 1.46.
Taken in the same sequence, the figures for `OC(CNC(c1ccccc1)c1ccc(F)cn1)c1ccco1` (stereo unspecified) were -10% and 1.36.
For `Cc1noc2ncnc(NCC(C)(C)CS(C)(=O)=O)c12`, in that order: -15% and 2.89.
For `CCO[C@H]1COC[C@@H]1NC(=O)c1cn2cccc(C)c2n1`, the “% Inhibition” value is reported as -12% and the Z score was 2.37.
For `CCn1cc(S(=O)(=O)Nc2ccc3ncccc3c2)cn1`, in that order: -12% and 1.41.
For `CC(C)CCn1c(=O)c2sccc2n(CC(=O)N(C)C2CCCCC2)c1=O`, in that order: 8% and -1.31.
Taken in the same sequence, the figures for `CCNC(=O)c1ccc(CN2CCC(Cc3ccccc3)CC2)o1` were -9% and 1.48.
On to `N#CCN1CCC(CNC(=O)c2ccnc(OC3CCC3)c2)CC1`, for which the “% Inhibition” value is -4% and the Z score was 0.58.
For `O=C(c1ccc2c(c1)OCO2)[C@H]1CCCN(Cc2ccc3cccc(F)c3n2)C1`, in that order: -2% and 0.28.
For `Cc1cnc(C2CC2)n1CCNC(=O)C1CC=CC1`, in that order: -4% and 0.85.
As for `C=CCC(C)(CC=C)NS(=O)(=O)c1ccc(C)cc1`, the “% Inhibition” value is on record as -7% and the Z score is 1.18.
For the compound `CCc1nocc1CN(C)C(=O)[C@@H]1CCCN1c1nccs1`, the “% Inhibition” value is -3% and the Z score worked out at 0.47.
Taken in the same sequence, the figures for `O=C1C[C@H](c2cccc(F)c2)c2sc(N3CCCCC3)nc2N1` were -4% and 0.47.
For `CCN(C(=O)C1CCN(S(=O)(=O)c2c(C)[nH]c(C)c2C(=O)N2CCCCC2)CC1)c1ccccc1`, in that order: 0% and -0.04.
As for `CC(C)CNC(=O)[C@H]1CC(=O)N(c2ccc(OCC(=O)NCc3ccccc3)cc2)C1`, the “% Inhibition” value is -3% and the Z score came out at 0.33.
Taken in the same sequence, the figures for `Cc1ccc(CNC2CCCCCC2)s1` were -12% and 1.77.
For `CN(c1nc2c(s1)CCCC2)S(C)(=O)=O`, in that order: 30% and -3.9.
For `COc1ccc(F)c(F)c1CN(C)[C@@H](C)c1ccncn1`, in that order: -4% and 0.47.
For `CC(C)N(CC1CCC1)C(=O)NCc1cc2c(cc1OC(F)F)OCO2`, the “% Inhibition” value was -10% and the Z score came to 1.44.
For the compound `Cn1ccc2ccc(CCC(=O)NC(C)(C)C)cc21`, the “% Inhibition” value was 16% and the Z score is given as -1.79.
Taken in the same sequence, the figures for `O=C1CCCN1CCc1noc([C@H]2C[C@@H]3C=C[C@H]2C3)n1` were -25% and 3.21.
Taken in the same sequence, the figures for `Cc1ccc(Cl)c(CNCCN2CCC[C@H](CO)C2)c1F` were 1% and -0.16.
For the compound `Cc1nc(-c2ccc(NC(=O)C3CCN(S(=O)(=O)c4cc(Cl)ccc4Cl)CC3)cc2)co1`, the “% Inhibition” value is on record as -4% and the Z score is given as 0.61.
For `CC(=O)N1CC[C@H](CN(C)C(=O)Nc2ccn(CCC(C)C)n2)C1`, in that order: -11% and 1.43.
Taken in the same sequence, the figures for `N#Cc1ccccc1OC/C=C/COc1ccccc1C#N` were -43% and 5.01.
For `c1ccc2nc(N3CC(c4ncc(C5CC5)cn4)C3)cnc2c1`, in that order: -1% and 0.18.
With `Cc1ccc(C)c(NS(=O)(=O)c2ccc(NC(=O)c3ccc(CN4CCOCC4)cc3)cc2)c1`, the “% Inhibition” value is on record as -7% and the Z score is 0.88.
Taken in the same sequence, the figures for `CCN1CCN(C(=O)C[C@H](c2cccc(Cl)c2)c2c[nH]c3ccc(Cl)cc23)CC1` were -12% and 1.51.
Taken in the same sequence, the figures for `CCNc1nc(C)c(C(=O)N(C)Cc2cc(-c3cccs3)n[nH]2)s1` were 9% and -1.66.
Consider `Cc1nc(-c2noc([C@@]34CCCC[C@@H]3NCC4)n2)co1`, for which the “% Inhibition” value is reported as 0% and the Z score is -0.03.
Taken in the same sequence, the figures for `C[C@@H](CNC(=O)c1coc(CN2CCN(c3ncccn3)CC2)n1)c1ccccc1` were -13% and 1.51.
Taken in the same sequence, the figures for `Cc1cccc(OCCN2C(=O)N[C@@]3(CCCCc4ccccc43)C2=O)c1` were 4% and -0.78.
For `O=C1O[C@H]2CN(c3ncnc4[nH]cnc34)C[C@H]2N1CCN1CCCCC1`, in that order: -4% and 0.39.
On to `C#CCNC(=O)[C@H](C)Nc1ccn(CC(F)(F)F)n1`, for which the “% Inhibition” value was -10% and the Z score is on record as 1.01.
Turning to `Cc1cccnc1[C@H](C)NS(=O)(=O)CC(C)C`, the “% Inhibition” value was 0% and the Z score came out at 0.
As to `Cc1ccc(NC(=O)CCn2nnc3cc(C(=O)NCc4ccc(C)c(C)c4)ccc32)cc1`, the “% Inhibition” value is recorded as -4% and the Z score was 0.63.
For `C[C@@H](CNc1ccccc1)NC(=O)CCc1ccccn1`, in that order: -9% and 1.7.

The record behind these values is ChEMBL document CHEMBL4888484, “Replenishing the malaria drug discovery pipeline: Screening and hit evaluation of the MMV Hit Generation Library 1 (HGL1) against asexual blood stage Plasmodium falciparum ,using a nano luciferase reporter read-out” (2022).
